Hit rate of the full screen: of about 360,000 compounds, about 25,000 (6.9%) were called active. This list was built around the results that the source calls inconclusive (neither active nor inactive); the mix of calls is not that of the screen. The call rests on the fitted dose curve; in most records, active means well fitted inhibition curve with a large enough effect; inconclusive means small, poorly fitted or top-dose-only effect; inactive means flat fitted curve, though single readings scatter. Potencies of inconclusive entries are doubtful fits and often do not repeat.
molecular target: Luciferin 4-monooxygenase (Photinus pyralis) (UniProt P08659); assay: qHTS profiling assay for firefly luciferase inhibitor/activator using purifed enzyme and Km concentrations of substrates (counterscreen for miR-21 project); settings: purified FLuc, luminescence inhibition; series mostly up to 57.5 µM; activity change, negative = inhibition: at the top concentration; further: nearly all actives have a fitted effect of over 55% in size;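 on activity change, negative = inhibition: plate controls were vehicle for no effect and reference inhibitor for full effect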
Procedure, shortened: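 Purified P. pyralis luciferase (10nM final) with 10uM D-luciferin and 10uM ATP (Km levels) in 50mM Tris acetate pH 7.5, 10mM Mg acetate, 0.01% Tween-20, 0.05% BSA; qHTS 6-point titration, ~60 µM downward; luminescence read.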
Potency means the concentration at half of the fitted maximal effect; tags describe the fitted curve by direction and shape.

UniProt P08659, sequence (P08659 whole entry, looked up): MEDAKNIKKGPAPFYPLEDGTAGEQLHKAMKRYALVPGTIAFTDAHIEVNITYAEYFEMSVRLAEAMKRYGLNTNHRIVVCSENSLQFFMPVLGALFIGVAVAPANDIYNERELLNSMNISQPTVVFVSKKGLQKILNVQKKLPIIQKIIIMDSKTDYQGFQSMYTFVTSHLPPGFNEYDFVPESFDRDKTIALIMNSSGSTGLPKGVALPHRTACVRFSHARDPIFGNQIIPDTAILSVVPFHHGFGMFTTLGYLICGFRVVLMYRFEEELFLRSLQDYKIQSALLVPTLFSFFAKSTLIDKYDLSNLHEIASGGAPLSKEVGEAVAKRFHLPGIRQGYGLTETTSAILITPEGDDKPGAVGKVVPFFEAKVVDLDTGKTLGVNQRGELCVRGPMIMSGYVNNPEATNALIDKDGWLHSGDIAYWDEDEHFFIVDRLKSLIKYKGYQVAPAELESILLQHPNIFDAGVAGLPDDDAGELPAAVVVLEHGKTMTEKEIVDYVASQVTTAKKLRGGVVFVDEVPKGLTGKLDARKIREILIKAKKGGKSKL

Compound	Potency	activity change, negative = inhibition
Cc1ccsc1/C=N/N=C1\C(=O)Nc2ccccc21	inconclusive: 12 µM [inhibitor, partial curve]	
CCOc1ccc(C(=O)NCC(=O)Nc2ccc3c(c2)OCO3)cc1OCC	inconclusive: 21.3 µM [inhibitor, partial curve, poor fit]	
O=C(NCc1ccccc1)c1cnc(-c2ccccn2)nc1C(F)(F)F	inconclusive: 26.9 µM [inhibitor, partial curve, poor fit]	
COc1ccc(C2=NN(c3ccccc3)C(=O)/C2=C\c2ccc(O)c(OC)c2)cc1	inconclusive: 26.9 µM [inhibitor, partial curve]	
Cc1ccc(Nc2nc(-c3ccc(F)cc3)cs2)nc1	active: 4.26 µM	
O=c1[nH]c2ccc(S(=O)(=O)Nc3cc(Cl)ccc3O)cc2o1	inconclusive: 23.9 µM [inhibitor, partial curve]	
Cc1nc2ccc(NC(=O)c3nn(CC(C)C)c(=O)c4ccccc34)cc2s1	inconclusive: 21.3 µM [inhibitor, partial curve, poor fit]	
CC1=C(/C=C/C(=O)O)C(C)(C)CCC1	inconclusive: 6.75 µM [inhibitor, partial curve, poor fit]	
COc1ccccc1NC(=O)c1ccc2nc(N3C(=O)CCC3=O)sc2c1	inconclusive: 37.9 µM [inhibitor, partial curve, poor fit]	
CSc1nc(C)cc(Nc2cccc(C(=O)O)c2)n1	inconclusive: 37.9 µM [inhibitor, single point]	
Cc1c(NC(=O)c2ccc(-c3ccc(F)cc3)o2)cccc1-c1nc2ncccc2o1	inconclusive: 1.35 µM [inhibitor, full curve]	
Cc1ccc(-c2n[nH]c3c2C(c2ccccc2)N(c2ccc(C(=O)O)cc2)C3=O)cc1 (configuration not stated)	inconclusive: 26.9 µM [inhibitor, single point]	
COc1cccc(C(=O)Nc2ccc3nc(SCC(=O)N4CCc5ccccc54)sc3c2)c1	inconclusive: 1.9 µM [inhibitor, full curve]	
Cc1ccc(-n2ncc(C(=O)N(C)Cc3ccccc3)c2-n2cccc2)cc1		inactive: -10.4%
COc1ccc(C2=NS(=O)(=O)N(C)C(C(=O)Nc3ccc4c(c3)OCO4)=C2)cc1OC	inconclusive: 21.3 µM [inhibitor, single point]	
O=C(Nc1ccc(-n2cnnn2)cc1)c1cccc(S(=O)(=O)N2CCCC2)c1		inactive: 5.33%
Cc1cc(Br)ccc1NC(=O)C(NS(=O)(=O)c1cccs1)c1ccccc1 (configuration not stated)		inactive: -16.9%
CC(CNC(=O)c1cc2ccccn2n1)c1ccccc1 (configuration not stated)	inconclusive: 37.9 µM [inhibitor, partial curve, poor fit]	
O=C(Nc1sc2c(c1C(=O)O)CCC2)c1ccccc1F	active: 26.9 µM	
CCn1c(C)c(C)c2cc(C(=O)NC3CCCCCC3)ccc21	active: 12 µM	
COc1ccc(/C(N)=N/OC(=O)CSc2ccccc2)cc1OC	active: 23.9 µM	
Cc1ccc([N+](=O)[O-])cc1N/C=C/C(=O)c1ccco1	inconclusive: 9.53 µM [inhibitor, partial curve]	
Cc1ccc(NC(=O)CSc2n[nH]c(C)c2[N+](=O)[O-])cc1	inconclusive: 4.78 µM [inhibitor, partial curve, poor fit]	
COc1ccc(C(=O)Oc2ccc(F)cc2C(=O)/C=C/c2ccc(OC)c(OC)c2)cc1		inactive: -1.2%

Compound	Potency	activity change, negative = inhibition
O=C(CCSCc1ccccc1F)NCc1cccs1	inconclusive: 37.9 µM [inhibitor, partial curve, poor fit]	
CSc1ccc(C(=O)N2CCC(CCC(=O)NCc3ccc(F)cc3)CC2)cc1		inactive: -3.08%
CC(=O)Nc1cccc(-c2nnc(-c3ccccc3)o2)c1	active: 12 µM	
Cc1cc(C)nc(Nc2n[nH]c(-c3ccc(N)cc3)n2)n1	active: 9.53 µM	
Cc1csc(NC(=O)CCNC(=O)c2ccccc2Cl)n1		inactive: -3.46%
O=C(NNC(=O)c1cccs1)c1cccc(F)c1		inactive: -7.16%
CSc1cccc(NC(=O)CC(c2ccc(F)cc2)N2Cc3ccccc3C2=O)c1 (configuration not stated)		inactive: -10.6%
CCOc1ccc(/C=C2\CCc3ccccc3C2=O)cc1	active: 0.301 µM	
CN(C)S(=O)(=O)c1cccc(NC(=S)Nc2cccc3cnccc23)c1	inconclusive: 23.9 µM [inhibitor, single point]	
CCOc1ccccc1N(CC(=O)Nc1c(C)n(C)n(-c2ccccc2)c1=O)S(=O)(=O)c1ccccc1		inactive: 4.39%
Cn1cccc1C(=O)NC(=O)COC(=O)CNC(=O)c1ccc(Cl)cc1Cl	inconclusive: 37.9 µM [inhibitor, partial curve, poor fit]	
O=C(O)C(Cc1ccccc1)N=Cc1c(O)c2ccccc2oc1=O (configuration not stated)	inconclusive: 16.9 µM [inhibitor, partial curve, poor fit]	
NC(=O)c1ccccc1N/C=C1\CCCCC1=O		inactive: -10.3%
CCCCCCCCc1nc(SC(C)C(=O)O)n[nH]1 (configuration not stated)	inconclusive: 30.1 µM [inhibitor, single point]	
O=C(/C=C/c1ccc(F)cc1)NC(=S)NNC(=O)c1cnccn1	inconclusive: 26.9 µM [inhibitor, single point]	
CC(=O)N1CCc2c(sc3c2c(=O)n(-c2ccccc2)c(=O)n3Cc2cccc(C(F)(F)F)c2)C1		inactive: -0.496%
Cc1cccc(Nc2nc(NCc3ccco3)c3ccccc3n2)c1	inconclusive: 16.9 µM [inhibitor, single point]	
Oc1ccc2ccccc2c1C=NC1CCCCC1	inconclusive: 30.1 µM [inhibitor, partial curve, poor fit]	
Cc1ccc2cccc(OCCOCCOc3ccccc3Br)c2n1		inactive: -6.92%
CC(C)c1ccc(Nc2nc(Cl)nc(NCCO)n2)cc1	inconclusive: 23.9 µM [inhibitor, partial curve, poor fit]	
CC(C)(C)c1ccc(O)c(/C=N\O)c1	inconclusive: 21.3 µM [inhibitor, partial curve]	
Cc1ccc(CCNS(=O)(=O)c2ccc3c(c2)CCN3C(=O)CCC(=O)O)cc1		inactive: 3.34%
CC(=O)Nc1nc(-c2ccccc2)ns1	inconclusive: 21.3 µM [inhibitor, partial curve]	
Cc1ccccc1/C=C\c1nc(O)c([N+](=O)[O-])c(=O)[nH]1	inconclusive: 21.3 µM [inhibitor, partial curve, poor fit]	

Compound	Potency	activity change, negative = inhibition
Cc1ccccc1C(=O)c1cccn1CC(=O)NCc1ccc2c(c1)OCO2	inconclusive: 23.9 µM [inhibitor, partial curve, poor fit]	
CC(C)(C)Cc1nnc(NC(=O)c2cc(-c3ccccc3)nc3ccccc23)s1	inconclusive: 30.1 µM [inhibitor, partial curve, poor fit]	
COc1ccc(Cc2nc(-c3ccc(Cl)cc3)no2)cc1	inconclusive: 26.9 µM [inhibitor, single point]	
N#C/C(=C(/O)COc1ccc(Br)cc1)c1nnc2n1CCCCC2	inconclusive: 21.3 µM [inhibitor, single point]	
O=C(/C=C/c1ccc(F)cc1)NCCCN1CCN(CCCNC(=O)/C=C/c2ccc(F)cc2)CC1	inconclusive: 37.9 µM [inhibitor, partial curve, poor fit]	
CCC(Oc1ccccc1)C(=O)Nc1ccccn1 (configuration not stated)	inconclusive: 12 µM [inhibitor, partial curve]	
Cc1cc(C(=O)Nc2nc3ccc(Cl)cc3s2)nn1C	active: 2.13 µM	
N#Cc1ccccc1NC(=O)c1cccc(COc2ccc(Cl)cc2Cl)c1	active: 13.5 µM	
Cc1ccc(C(=O)Nc2sc(C(=O)N(C)C)c(C)c2C#N)cc1	inconclusive: 37.9 µM [inhibitor, partial curve, poor fit]	
O=C(NCC(c1cccnc1)N1CCc2ccccc2C1)C(=O)Nc1cccc(Cl)c1 (configuration not stated)		inactive: -0.381%
Cc1csc(NC(=O)c2ccc(COc3ccccc3)o2)n1	active: 16.9 µM	
COc1ccc(-c2cc(C(=O)NCCc3ccccc3)c3c(-c4ccccc4)[nH]nc3n2)cc1		inactive: 0.269%
Cc1ccc(-c2cc(C(=O)Nc3ccc(S(=O)(=O)Nc4nccs4)cc3)c3ccccc3n2)c(C)c1	inconclusive: 37.9 µM [inhibitor, partial curve, poor fit]	
CC(C)(C)C1CCc2c(C(=O)N/N=C/c3cccs3)csc2C1 (configuration not stated)	active: 5.36 µM	
Cc1cc(NS(=O)(=O)c2ccc(NC(=O)c3cccnc3)cc2)nc(C)n1		inactive: -0.527%
CCN(CC)c1ccc(CN2CCC(C(=O)NCc3ccc(C)cc3)CC2)cc1	active: 23.9 µM	
CCOC(=O)c1ccc(CN(Cc2ccc(F)cc2)S(=O)(=O)c2cc(C(=O)Nc3ccccc3CC)ccc2F)cc1		inactive: -2.92%
O=C(O)C1(c2ccccc2)CCN(S(=O)(=O)c2ccc(Br)cc2)CC1		inactive: -8.94%
CNC(=O)NC(=O)C(C)OC(=O)CCCSc1nc2ccccc2s1 (configuration not stated)	inconclusive: 26.9 µM [inhibitor, partial curve, poor fit]	
CC1CCN(c2ccc(C(=O)NCc3ccco3)cc2[N+](=O)[O-])CC1	inconclusive: 37.9 µM [inhibitor, single point]	
Cc1cccc(NC(=O)CSc2nc(C)c(Cc3ccccc3)c(=O)[nH]2)c1C	inactive	
COCCn1c(C)cc(C(=O)COc2ccc(N(C)S(=O)(=O)c3ccc(C)cc3)cc2)c1C	inconclusive: 9.53 µM [inhibitor, partial curve, poor fit]	
COc1ccc(C(NC(=O)CN2CCCCCC2)c2ccc(OC)cc2)cc1		inactive: 0.711%
CCC(C(=O)N(C)Cc1ccccc1)n1nc(C)c2sc3ccccc3c2c1=O (configuration not stated)	inconclusive: 26.9 µM [inhibitor, partial curve, poor fit]	

Reference: PubChem BioAssay AID588342 (National Center for Advancing Translational Sciences (NCATS), 2011)
